{
  "source": "PubChem BioAssay AID1671193",
  "about": "(National Center for Advancing Translational Sciences (NCATS), 2021)",
  "note": "Out of some 150,000 compounds screened, about 180 (0.12%) were called active. Inconclusive results, whose numbers are uncertain, are shown with a selection of clear calls. Calls come from the whole dose curve; as a rule, active = well fitted cell-killing curve with a large enough effect; inconclusive = small, poorly fitted or top-dose-only effect, or effect the other way; inactive = flat fitted curve, though single readings scatter. Potencies beside an inconclusive call are fits to weak or partial responses and may not hold up. Potency is the fitted concentration of half-maximal effect; tags give direction and shape of the fitted curve.",
  "data": [
    {"experiment": "GF-AFC viability counterscreen for inhibitors of alpha-synuclein gene (SNCA) expression; note: nearly all actives have a fitted effect of over 30% in size", "settings": "HEK-293-SNCA-luc viability, GF-AFC fluorescence, 24 h; series mostly up to 57.1 µM", "outline": "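Cytotoxicity counterscreen: after 24 h compound treatment of genome-edited SNCA-luciferase HEK-293 cells, live-cell protease substrate GF-AFC read by fluorescence after 30 min; activity scaled between DMSO (0%) and medium-only (-100%), curves Hill-fitted.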", "values": [
      {"smiles": "CCC(=O)N1CCC(=O)N(CC)C2(CCOCC2)C1", "Potency": "inconclusive: 8.91 µM [cytotoxic, single point]"},
      {"smiles": "CC1(C(=O)Nc2ccccc2)COCc2cnc(Nc3ccccc3)nc21", "note": "(configuration not stated)", "Potency": "inactive"},
      {"smiles": "O=C(CCCn1c(=O)[nH]c2ccccc2c1=O)N1CCN(c2ccccc2)CC1", "Potency": "inconclusive: 1.58 µM [cytotoxic, full curve, poor fit]"},
      {"smiles": "CCOC(=O)c1cc2c(=O)n3ccccc3nc2n(Cc2ccco2)c1=NC(=O)c1ccc(F)cc1", "Potency": "inconclusive: 22.4 µM [rising, partial curve, poor fit]"},
      {"smiles": "COc1ccc(OCC2(C)COc3ccc(C(=O)N(C)Cc4ccccc4)cc3N2)cc1", "note": "(configuration not stated)", "Potency": "inconclusive: 10 µM [cytotoxic, single point]"},
      {"smiles": "CC(C)n1cnc2c(Nc3cccc(Cl)c3)nc(NCCO)nc21", "Potency": "inconclusive: 23.8 µM [cytotoxic, single point]"},
      {"smiles": "O=C(Cc1ccccc1Br)N1CCCN(c2cc(-c3ccc(F)cc3)[nH]n2)CC1", "Potency": "inconclusive: 20 µM [cytotoxic, partial curve, poor fit]"},
      {"smiles": "COc1cccc(-n2cc(C(=O)NCc3ccc(C)cc3)c3ccccc3c2=O)c1", "Potency": "inconclusive: 39.8 µM [cytotoxic, single point]"},
      {"smiles": "C[C@H]1NCc2cc(-c3ccc4c(=O)c(C(=O)O)cn(C5CC5)c4c3OC(F)F)ccc21", "Potency": "inconclusive: 0.708 µM [rising, partial curve, poor fit]"},
      {"smiles": "CCc1cccc(CC)c1NC(=O)N1Cc2[nH]nc(NC(=O)c3ccc(N4CCN(C)CC4)cc3)c2C1", "Potency": "inconclusive: 19.2 µM [cytotoxic, partial curve, poor fit]"},
      {"smiles": "Cc1noc(C)c1[S+](=O)([O-])N1CCCC1C(=O)N1CCC(c2nc3ccncc3[nH]2)CC1", "note": "(configuration not stated)", "Potency": "inactive"},
      {"smiles": "CC(C)(C)CC(=O)N1C[C@@H](CO)[C@H](c2nc(-c3ccncc3)no2)C1", "Potency": "inactive"},
      {"smiles": "COc1ccc(Nc2cc(C(=O)NCCCN(C)C3CCCCC3)c3ccccc3n2)c(OC)c1", "Potency": "inconclusive: 39.8 µM [cytotoxic, single point]"},
      {"smiles": "O=S(=O)(NCCc1csc2nc(-c3ccc(Cl)cc3)nn12)c1ccc2c(c1)OCCO2", "Potency": "inconclusive: 20 µM [cytotoxic, partial curve, poor fit]"},
      {"smiles": "CCn1c(=O)c(-c2ccn[nH]2)cc2c(C)nc(N)nc21", "Potency": "inconclusive: 1.19 µM [cytotoxic, full curve, poor fit]"},
      {"smiles": "CCN(CC)CCNC(=O)c1ccc(-n2c(-c3ccccc3)cc3c2CCCC3)cc1", "Potency": "inconclusive: 17.8 µM [cytotoxic, partial curve, poor fit]"},
      {"smiles": "CC(C)c1nnc(C2CN(C(=O)c3ccc4ccccc4n3)CC23CCOCC3)o1", "note": "(configuration not stated)", "Potency": "inconclusive: 5.01 µM [cytotoxic, partial curve]"},
      {"smiles": "COc1cc2c(NC3CCN(C(C)C)CC3)nc(N3CCC(F)(F)CC3)nc2cc1OCCCN1CCCC1", "Potency": "active: 23.8 µM"},
      {"smiles": "CCOC(=O)C1(Cc2ccccc2F)CCCN(C(=O)CCc2c[nH]c3ccccc23)C1", "note": "(configuration not stated)", "Potency": "inconclusive: 39.8 µM [cytotoxic, single point]"},
      {"smiles": "O=c1c(-c2ccc(F)cc2)nc2cncnc2n1Cc1ccc(F)cc1", "Potency": "inconclusive: 22.4 µM [cytotoxic, partial curve, poor fit]"},
      {"smiles": "CCC(=O)N1Cc2ccccc2CC2(CCN(Cc3ccccc3)C2)C1", "note": "(configuration not stated)", "Potency": "inactive"},
      {"smiles": "Fc1ccc(Br)cc1C1C=C(c2ccc(Br)cc2)Nc2nnnn21", "note": "(configuration not stated)", "Potency": "inconclusive: 39.8 µM [rising, partial curve, poor fit]"},
      {"smiles": "c1ccc(Nc2cc3c(cn2)CN(Cc2ccsc2)CCN3)cc1", "Potency": "inconclusive: 3.16 µM [cytotoxic, full curve]"},
      {"smiles": "Cc1nc2c(c(-c3ccc(O)cc3)n1)CN(Cc1ccccc1)CC2", "Potency": "inconclusive: 7.08 µM [cytotoxic, single point]"},
      {"smiles": "Cc1cc(OC2CN(Cc3cccc4ccccc34)C2)ccc1F", "Potency": "inactive"},
      {"smiles": "COC(=O)c1c(NC(C)=O)c2cc(NC(C)CCO)cnc2n1CC1CCCO1", "note": "(configuration not stated)", "Potency": "inconclusive: 31.6 µM [rising, single point]"},
      {"smiles": "COc1cc([C@@H]2c3cc4c(cc3[C@@H](O[C@@H]3O[C@@H]5CO[C@@H](C)O[C@@H]5[C@H](O)[C@@H]3O)[C@H]3COC(=O)[C@H]23)OCO4)cc(OC)c1O", "Potency": "inconclusive: 3.83 µM [cytotoxic, full curve]"},
      {"smiles": "COCCn1c(=O)c(-c2ccc(OC)cc2)nc2cnc(Oc3ccccc3)nc21", "Potency": "inconclusive: 35.5 µM [rising, partial curve, poor fit]"},
      {"smiles": "CC(=O)Nc1ccn(C2COC(COC(=O)c3ccccc3)O2)c(=O)n1", "note": "(configuration not stated)", "Potency": "inconclusive: 8.44 µM [cytotoxic, single point]"},
      {"smiles": "COCCNC[C@@H]1C=C(C)[C@H](Cc2nnc(-c3ccc(N(C)C)cc3)o2)C[C@H]1C(C)C", "Potency": "inconclusive: 25.1 µM [cytotoxic, partial curve, poor fit]"},
      {"smiles": "O=c1n(CC2CC2)nc2n1CCN(S(=O)(=O)c1ccc(Cl)s1)CC2", "Potency": "inconclusive: 25.1 µM [cytotoxic, partial curve, poor fit]"},
      {"smiles": "CCCCOC(=O)c1ccc(Nc2nnc(-n3nc(C)cc3C)c3ccccc23)cc1", "Potency": "inconclusive: 5.01 µM [rising, partial curve, poor fit]"},
      {"smiles": "OCCCc1nc2n(n1)C(c1cccc(Cl)c1)C=C(c1ccccc1)N2", "note": "(configuration not stated)", "Potency": "inconclusive: 35.5 µM [rising, single point]"},
      {"smiles": "O=C1NC(=NC2CCCC2)C2(CCCN(Cc3ccc(F)cc3)C2)N1c1cc(F)cc(F)c1", "note": "(configuration not stated)", "Potency": "inconclusive: 39.8 µM [cytotoxic, single point]"},
      {"smiles": "C[S+](=O)([O-])c1ccc(-c2nc(C(=O)NCc3ccc(F)cc3)n3ccccc23)cc1", "Potency": "inactive"},
      {"smiles": "COCCn1c(=N)c(C(=O)NCc2ccco2)cc2c(=O)n3cc(C)ccc3nc21", "Potency": "inconclusive: 20 µM [rising, partial curve, poor fit]"},
      {"smiles": "CC#CCn1cc2c3c(cccc31)[C@H](CC(C)C)N[C@H](C(=O)NC1CC1)C2", "Potency": "inconclusive: 39.8 µM [cytotoxic, single point]"}
    ]}
  ]
}
